These results are taken from the RNAGym collection of RNA variant scans (doi:10.1093/nar/gkz1192).

The chains are these.
B1: CPEB3 Ribozyme (parent)
chain: UAACAGGGGGCCACAGCAGAAGCGUUCACGUCGCAGCCCCUGUCAGAUUCUGGUGAAUCUGCGAAUUCUGCUGUAUAUCUC

Read counts are not given, so values of variants with three or more changes are uncertain.

The variants in the series derive from B1. Put plainly: self-cleavage, relative activity (ratio to wild type); higher = more cleavage; in vitro, sequencing. Put shortly: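 Libraries of CPEB3 self-cleaving ribozyme mutants came from rounds of error-prone PCR and carried barcodes, which DNA sequencing matched to variants. In vitro transcription used T7 RNA polymerase at 37°C for 5 hours, with a further 15 min in DNase I before EDTA stopped the reaction; the ribozymes cleaved during both steps. The RNA was reverse transcribed with template switching and sequenced on Illumina. Relative activity is the cleaved/total read fraction of a variant divided by that of the unmutated ribozyme, averaged over three batches with at least 5 reads.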
Take A20G U43G A56G U58A U72A: the self-cleavage is 0.36. The result for A20G U49C U76A reads 0.32; that for A20U A64G U67G U72A, 0.17; that for A20U A65C U72A U80C, 0.12.

Consider A20U C34U U41A U49C U54C, for which the self-cleavage is 0.06. Then A20U A45G A47G, with 0.09; and A20U A28C G46U U54A, with 0.17. Then A20U C37U C40G A47U, with 0.17; and A20U G24C U43A U48A A56G, with 0.15; and A20U A56U A57U, with 0.44.

For the variant A20U G24A A35U, the self-cleavage worked out at 0.16. For A20U U25A U72C G73A U80A, the self-cleavage was 0.06. On to A20G U41A U69C, for which the self-cleavage was 0.1. The result for A20U U25C U41C A64U U72A reads 0.1; that for A20G U25C A64U U74C, 0.13. Then A20U A21U A65G, with 0.21. For A20G U43C A57G A65G U69C, the self-cleavage turned out to be 0.29. Then A20U A65G U66C, with 0.13.

As to A20G U54G U60A, the self-cleavage was 0.23. For A20G U25C A28G U31A U41C G46A A65C, the self-cleavage turned out to be 0.12. Then A20U A64G U69A, with 0.11; and A20G U66A U80C, with 0.58; and A20G U43C U54G U80A, with 0.41. As to A20U A21G U25C, the self-cleavage worked out at 0.36. On to A20G U25C A35U C71U, for which the self-cleavage came to 0.21.

For the variant A20U C50A U54A, the self-cleavage was 0.29. A20G U31A U80C: the self-cleavage came to 0.51.

Turning to A20U A28C G53C U67C C81U, the self-cleavage was determined as 0. Then A20G U41C U54A A64G, with 0.31; and A20U G24A U80C, with 0.08. Then A20G U43G U80C, with 0.43; and A20G U25C U26C U31C, with 0.41; and A20U C23A U58C, with 0.29. Take A20G U41G A77G U80C: the self-cleavage amounted to 0.22. Then A20G U43G U48C, with 0.15. Then A20G U26A A77U, with 0.77; and A20G U26A A28G U49A U60C, with 0.07. As for A20U C32U U41C, the self-cleavage is 0.22. Turning to A20U A56U U66C, the self-cleavage is 0.14. The result for A20G U51A U66C reads 0.17. For the variant A20G U26C U41C U69C U72A U76A, the self-cleavage worked out at 0.1. Then A20U A45G A47G U51G A77G C81U, with 0.05. The result for A20G U43C U51A reads 0.44; that for A20G U60C A77U, 0.48. Then A20U C40A A57G U60C G70A, with 0.08; and A20U A35G U49A U51C, with 0.3. With A20G U43C A56U A64G, the self-cleavage stood at 0.17.

In the case of A20G U66A U76C, the self-cleavage was 0.43. Then A20U A28G U54C A75U C79G, with 0.19.

In the case of A20U A45G G53A A75G, the self-cleavage is 0.13. Consider A20G U49A A56G A57C U72A, for which the self-cleavage came out at 0.13.

Take A20U A35G A57U: the self-cleavage came out at 0.34. For A20U G53A C59U G63U, the self-cleavage was determined as 0.1. With A20G U41A U49C U69C U78C, the self-cleavage was 0.12. Consider A20G U25C G52C, for which the self-cleavage was 0.21. Regarding A20U A21G A28G U41C C62A A64G, the self-cleavage was 0.05. On to A20U A45G A57U, for which the self-cleavage is 0.09.

As to A20G U31C U54C, the self-cleavage was 0.28. The result for A20U G22C U25A C40U A64G A77G reads 0.06; that for A20U G42U U49A U51A G73U U80A, 0.2.

Regarding A20U A56U U67A U78A, the self-cleavage was 1.04. On to A20G U78A U80C, for which the self-cleavage turned out to be 0.95. Turning to A20G U43C C44A U51A U74A, the self-cleavage is 0.15.

Consider A20G U26C U31A U72C, for which the self-cleavage stood at 0.11.

For A20G U31C A56G, the self-cleavage worked out at 0.22. The result for A20G U25A U69C reads 0.16; that for A20G U26C U51A G55U U72C U78C, 0.47; that for A20G U26C A35C A64G, 0.21. Turning to A20G U60C U80C, the self-cleavage stood at 0.41.

A20G U60C A64G U67C: the self-cleavage was determined as 0.21.

As for A20U C40U A64G U76C, the self-cleavage came out at 0.1.

In the case of A20G U26A U41C U80A, the self-cleavage stood at 0.6. The result for A20G U26C U58C U60C C71U U80C reads 0.05; that for A20G U49C U80C, 0.37; that for A20U A65G U67C U74C, 0.17. Then A20G U51A A64G, with 0.63; and A20G U41C U51A U67C U72A, with 0.8; and A20G U49C A56G U60C, with 0.55. Take A20G U54G U67C U74A: the self-cleavage came to 1.13. Then A20G U25A U43C G63A, with 0.31; and A20G U31C A35U U58A, with 0.19.

On to A20G U26C A28U U51A U69C A77G, for which the self-cleavage was determined as 0.2.

In the case of A20G U26C U48C, the self-cleavage was 0.09.

With A20U A56G A64U U72C, the self-cleavage was found to be 0.19.
